Results from PubChem BioAssay AID1347073 (National Center for Advancing Translational Sciences (NCATS), 2019).
The campaign covered roughly 45,000 compounds. About 200 (0.44%) were called active. About 7% were inconclusive and are not listed. Calls follow the shape of the dose curve; as a rule, active = well fitted activation curve with a large enough effect; inconclusive = small, poorly fitted or top-dose-only effect; inactive = no such curve, though single readings can be large or run the other way. The list shows a part of the results.

test: qHTS of TDP-43 Inhibitors: NCGC Sytravon Library Screen; settings: yeast TDP-43 toxicity rescue, BacTiter-Glo growth, 24 h; series mostly up to 46.1 µM; growth rescue (activation): at the top concentration; also: 0% is about no effect; nearly all actives have a fitted effect of over 55% in size
How it was run: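 TDP-43-expressing yeast, pregrown in raffinose, seeded at OD600 0.02 in galactose medium with compound for 24 hr at 30 deg C. Growth read by BacTiter-Glo luminescence, so rescue of toxicity appears as activation.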

| SMILES | growth rescue (activation) |
| --- | --- |
| Cc1c(NC2=CC(=O)CCC2)c(=O)n(-c2ccccc2)n1C | inactive: 2.61% |
| CCOc1ccc(OCC)c(NC(=O)CSc2nnc(C3CC3)n2CC)c1 | inactive: -34.3% |
| O=C(COc1ccc(Cl)cc1)OCC(=O)N1CCCCCC1 | inactive: -3.72% |
| O=C1NC(c2ccccc2)=C(c2ccccc2)C1=O | inactive: -1.44% |
| CCOc1ccccc1Nc1nnc(SC(C)C(=O)Nc2nc(-c3ccccc3)cs2)s1 (centres undefined) | inactive: 11.7% |
| Cc1cccn2c(=O)c(/C=C(\C#N)C(=O)NC3CCS(=O)(=O)C3)c(N3CCC(C(N)=O)CC3)nc12 (centres undefined) | inactive: 7.9% |
| COc1cc(C(=O)NCC(=O)N/N=C(C)\C=C\c2ccccc2)cc(OC)c1OC | inactive: 2.05% |
| Cc1cccc(C(=O)NC2CC3CCCC(C2)N3C(=O)NC2CCCCC2)c1 (centres undefined) | inactive: 7.54% |
| Cc1ccc(C)c(NC(=O)Cc2nc(CNCC(C)C)cs2)c1 | inactive: 6.1% |
| CCn1cnnc1SCC(=O)Nc1ccccc1C(=O)NC1CC1 | inactive: 19.6% |
| Nc1nonc1-n1nnc(C(=O)N/N=C/c2c(Cl)cccc2Cl)c1CN1CCOCC1 | inactive: -6.02% |
| Brc1ccc(/C=N/Nc2ccccc2)cc1 | inactive: -3.35% |
| O=C(COc1ccc(Br)cc1Cl)NC(=S)N1CCc2ccccc21 | inactive: 6.26% |
| O=C1N=c2ccc(Br)cc2=C1c1sc(=S)n(NS(=O)(=O)c2ccccc2)c1O | inactive: 6.88% |
| C=CCN(C(=O)CSc1nnnn1C)c1nc(-c2ccccc2)cs1 | inactive: 17.6% |
| COc1cccc(/C=N/NC(=O)CCc2c(C)n[nH]c2C)c1 | inactive: 3.92% |
| O=C(Cn1ccc2ccccc2c1=O)NCC(=O)N1CCN(c2ccc(F)cc2)CC1 | inactive: 10.1% |
| Cc1ccc(C(=O)Nc2cccc(C(=O)NC3CCCC3)c2)cc1 | inactive: 10.4% |
| c1ccc(CN2CCN(Cc3cn4cccnc4n3)CC2)cc1 | inactive: -9.01% |
| Cc1nnc(N2C(=O)C(=O)/C(=C(\O)c3ccc4c(c3)CC(C)O4)C2c2ccccc2)s1 (centres undefined) | inactive: -2.34% |
| CCc1ccc(OCC(=O)N/N=C(\C)c2ccc(-n3ccnc3)cc2)cc1 | inactive: 9.28% |
| CC1(C)CC(=O)C(C2C3=C(CC(C)(C)CC3=O)Oc3ccccc32)C(=O)C1 (centres undefined) | inactive: -0.975% |
| COc1cc(C(=O)NC2CCCC2)c(Br)c(OC)c1OC | inactive: 8.62% |
| CCOC(=O)C1CCCN(C2CCN(Cc3nc(-c4ccccc4)no3)CC2)C1 (centres undefined) | inactive: -4.98% |
| O=C(Nc1nncs1)c1cc(-c2ccco2)nc2ccccc12 | inactive: 3.29% |
| COCCOC(=O)c1c(NC(=O)CNc2ccc(C)c(F)c2)sc(C(N)=O)c1C | inactive: -10.5% |
| CC(C)(C)c1cccc(P(=O)(c2ccccc2)c2ccccc2)c1O | inactive: 10.3% |
| CC(C)Cn1c2c(c(O)c(C(=O)Nc3nc4ccccc4s3)c1=O)CCCC2 | inactive: -6.43% |
| COc1cccc(CN2CCN(Cc3[nH]c4ccccc4c3C)CC2CCO)c1 (centres undefined) | inactive: 6.63% |
